Measurements reported in the supplement of paper PMC12067230.
Single values of this set are uncertain.

test: amyloid nucleation score relative to library mode (yeast Sup35 reporter selection) (log enrichment difference); higher = more amyloid nucleation; sequences are the first 22 residues of the Bri2 peptide extended by up to 12 random residues; conditions: random library (experiment): 1;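 active = nucleation score significantly above 0 at FDR 0.05; inactive = not significantly above 0 or absent from output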
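Further: [psi-pin-] Saccharomyces cerevisiae expressing SupN fusions, induced by 100 µM Cu2SO4, selected 7 d at 30 °C without adenine and uracil, scored by deep sequencing of output versus input.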

Sequence	amyloid nucleation score
EASNCFAIRHFENKFAVETLICAAATSR	inactive
EASNCFAIRHFENKFAVETLICCNDCYVGATLDA	6.34
EASNCFAIRHFENKFAVETLICRKL	inactive
EASNCFAIRHFENKFAVETLICAGRTSSVALR	1.2
EASNCFAIRHFENKFAVETLICQCFLCNLCWECD	8.8
EASNCFAIRHFENKFAVETLICTKRHKPSLQSIV	inactive
EASNCFAIRHFENKFAVETLICRVLVLRATGSTW	inactive
EASNCFAIRHFENKFAVETLICKIA	6.7
EASNCFAIRHFENKFAVETLICLVGGQRCNLNAT	-0.493
EASNCFAIRHFENKFAVETLICYAVR	inactive
EASNCFAIRHFENKFAVETLICRPRWGWWVCESG	inactive
EASNCFAIRHFENKFAVETLICCEELGHRQVRCT	inactive
EASNCFAIRHFENKFAVETLICHAQRFWRSLRLS	inactive
EASNCFAIRHFENKFAVETLICAAPKVMECGVLS	inactive
EASNCFAIRHFENKFAVETLICFSGWRLVLVRCG	1.79
EASNCFAIRHFENKFAVETLICCVENE	5.48
EASNCFAIRHFENKFAVETLICDWFSAVSVLCCA	4.58

Sequence	amyloid nucleation score
EASNCFAIRHFENKFAVETLICVRSIRYRLWPHV	inactive
EASNCFAIRHFENKFAVETLICYF	8.28
EASNCFAIRHFENKFAVETLICGLWTTAMDRATN	5.02
EASNCFAIRHFENKFAVETLICVVARSPGFVRAR	inactive
EASNCFAIRHFENKFAVETLICAWRMAERRPVGS	inactive
EASNCFAIRHFENKFAVETLICITYVWYDGTSGR	inactive
EASNCFAIRHFENKFAVETLICTTCVVFSNHMKS	7.97
EASNCFAIRHFENKFAVETLICNRFRTWC	inactive
EASNCFAIRHFENKFAVETLICISIHDTDCRDTR	inactive
EASNCFAIRHFENKFAVETLICQSGDPEAESAVR	inactive
EASNCFAIRHFENKFAVETLICPVEGRNVWCCWA	7.31
EASNCFAIRHFENKFAVETLICPLCTSSGLVS	inactive
EASNCFAIRHFENKFAVETLICANRDYLHSFTLG	inactive
EASNCFAIRHFENKFAVETLICGSKNAGMALRKG	inactive
EASNCFAIRHFENKFAVETLICAIMR	inactive
EASNCFAIRHFENKFAVETLICVMGRFT	inactive

same assay, conditions: random library (experiment): 2

Sequence	amyloid nucleation score
EASNCFAIRHFENKFAVETLICRWS	inactive
EASNCFAIRHFENKFAVETLICARDVPIMKYSAQ	1.85
EASNCFAIRHFENKFAVETLICRFQVLWWSKCQG	inactive
EASNCFAIRHFENKFAVETLICDINGVPLHCVRC	inactive
EASNCFAIRHFENKFAVETLICCSVVDV	8.52
EASNCFAIRHFENKFAVETLICCTLFLGIRIIRS	inactive
EASNCFAIRHFENKFAVETLICNVQFRPYNWNVR	7.79
EASNCFAIRHFENKFAVETLICRSCCHVLCFEEM	1.08
EASNCFAIRHFENKFAVETLICLVCVGMPSPAYP	8.16
EASNCFAIRHFENKFAVETLICREEMLETGRLPA	inactive
EASNCFAIRHFENKFAVETLICDPFILFGGMASR	7.56
EASNCFAIRHFENKFAVETLICRDKDTSCTVWVS	inactive
EASNCFAIRHFENKFAVETLICNGRARN	0.494
EASNCFAIRHFENKFAVETLICNNLRYYGTTSYF	3.19
EASNCFAIRHFENKFAVETLICTRQIVKRWKLCN	-0.3
EASNCFAIRHFENKFAVETLICLYLRIKKVNLHG	inactive

Sequence	amyloid nucleation score
EASNCFAIRHFENKFAVETLICLFCFNGRCNSRM	8.27
EASNCFAIRHFENKFAVETLICLVWKNLMPCSRM	inactive
EASNCFAIRHFENKFAVETLICFDCRDHLEFILS	7.78
EASNCFAIRHFENKFAVETLICRIYWEYMCRLDK	inactive
EASNCFAIRHFENKFAVETLICYQFQRIRFRHPG	0.536
EASNCFAIRHFENKFAVETLICCPVWRSFVAW	8.59
EASNCFAIRHFENKFAVETLICTRTWCCMQWASL	4.67
EASNCFAIRHFENKFAVETLICMFYIERINYTRR	inactive
EASNCFAIRHFENKFAVETLICIHPISFIPAMWV	4.3
EASNCFAIRHFENKFAVETLICVIRPVCCIRHVL	inactive
EASNCFAIRHFENKFAVETLICMLNNRGVSLTRG	1.87
EASNCFAIRHFENKFAVETLICLMDCTIGVGLER	6.68
EASNCFAIRHFENKFAVETLICTDTLYLWELGH	4.62
EASNCFAIRHFENKFAVETLICPF	inactive
EASNCFAIRHFENKFAVETLICYFSVEGSQFLLM	-0.0198
EASNCFAIRHFENKFAVETLICVQVMVWHLNGCH	1.71

same assay, conditions: random library (experiment): 3

Sequence	amyloid nucleation score
EASNCFAIRHFENKFAVETLICEVFGPAESARTA	inactive
EASNCFAIRHFENKFAVETLICQYNYGLSQFVFR	7.06
EASNCFAIRHFENKFAVETLICWNSESRSGRVA	inactive
EASNCFAIRHFENKFAVETLICPTCA	inactive
EASNCFAIRHFENKFAVETLICESWYWTITVPRC	inactive
EASNCFAIRHFENKFAVETLICVVRFMRTCCCGC	2.71
EASNCFAIRHFENKFAVETLICWRLK	inactive
EASNCFAIRHFENKFAVETLICGSVPPGQRDRCG	inactive
EASNCFAIRHFENKFAVETLICCCLRCAAKLSLV	inactive
EASNCFAIRHFENKFAVETLICLEFSLLSGPEWW	inactive
EASNCFAIRHFENKFAVETLICRCYWGSCCSEVT	5.72
EASNCFAIRHFENKFAVETLICNVGDATILGVVE	5.04
EASNCFAIRHFENKFAVETLICVCLFLR	6.54
EASNCFAIRHFENKFAVETLICKTTLLRTLVLSF	inactive
EASNCFAIRHFENKFAVETLICRNA	inactive
EASNCFAIRHFENKFAVETLICRVRVMGCLSLNG	inactive
EASNCFAIRHFENKFAVETLICAVWITSTRRSWS	2.29
EASNCFAIRHFENKFAVETLICIDETYLF	inactive
EASNCFAIRHFENKFAVETLICKCHLVCW	inactive
EASNCFAIRHFENKFAVETLICVCFIQA	1.28
EASNCFAIRHFENKFAVETLICNER	inactive
EASNCFAIRHFENKFAVETLICTFIVKVTWFIWG	inactive
